The whole screen tested about 350,000 compounds, of which about 31,000 (8.9%) were called active. Inconclusive means that the source gave no clear call. Such entries were picked first, then a sample of the others. Calls follow the shape of the dose curve; as a rule, active = well fitted inhibition curve with a large enough effect; inconclusive = small, poorly fitted or top-dose-only effect; inactive = no such curve, though single readings can be large or run the other way. Potencies of inconclusive entries are doubtful fits and often do not repeat.
Each compound was assayed against Histone-lysine N-methyltransferase EHMT2 (Homo sapiens) (UniProt Q96KQ7) (assay: qHTS Assay for Inhibitors of Histone Lysine Methyltransferase G9a). Details: G9a H3K9 monomethylation, AlphaScreen, 2 h; activity, negative = inhibition: at 59 µM (top of the series) unless noted.
UniProt Q96KQ7, sequence (Q96KQ7 whole entry, looked up): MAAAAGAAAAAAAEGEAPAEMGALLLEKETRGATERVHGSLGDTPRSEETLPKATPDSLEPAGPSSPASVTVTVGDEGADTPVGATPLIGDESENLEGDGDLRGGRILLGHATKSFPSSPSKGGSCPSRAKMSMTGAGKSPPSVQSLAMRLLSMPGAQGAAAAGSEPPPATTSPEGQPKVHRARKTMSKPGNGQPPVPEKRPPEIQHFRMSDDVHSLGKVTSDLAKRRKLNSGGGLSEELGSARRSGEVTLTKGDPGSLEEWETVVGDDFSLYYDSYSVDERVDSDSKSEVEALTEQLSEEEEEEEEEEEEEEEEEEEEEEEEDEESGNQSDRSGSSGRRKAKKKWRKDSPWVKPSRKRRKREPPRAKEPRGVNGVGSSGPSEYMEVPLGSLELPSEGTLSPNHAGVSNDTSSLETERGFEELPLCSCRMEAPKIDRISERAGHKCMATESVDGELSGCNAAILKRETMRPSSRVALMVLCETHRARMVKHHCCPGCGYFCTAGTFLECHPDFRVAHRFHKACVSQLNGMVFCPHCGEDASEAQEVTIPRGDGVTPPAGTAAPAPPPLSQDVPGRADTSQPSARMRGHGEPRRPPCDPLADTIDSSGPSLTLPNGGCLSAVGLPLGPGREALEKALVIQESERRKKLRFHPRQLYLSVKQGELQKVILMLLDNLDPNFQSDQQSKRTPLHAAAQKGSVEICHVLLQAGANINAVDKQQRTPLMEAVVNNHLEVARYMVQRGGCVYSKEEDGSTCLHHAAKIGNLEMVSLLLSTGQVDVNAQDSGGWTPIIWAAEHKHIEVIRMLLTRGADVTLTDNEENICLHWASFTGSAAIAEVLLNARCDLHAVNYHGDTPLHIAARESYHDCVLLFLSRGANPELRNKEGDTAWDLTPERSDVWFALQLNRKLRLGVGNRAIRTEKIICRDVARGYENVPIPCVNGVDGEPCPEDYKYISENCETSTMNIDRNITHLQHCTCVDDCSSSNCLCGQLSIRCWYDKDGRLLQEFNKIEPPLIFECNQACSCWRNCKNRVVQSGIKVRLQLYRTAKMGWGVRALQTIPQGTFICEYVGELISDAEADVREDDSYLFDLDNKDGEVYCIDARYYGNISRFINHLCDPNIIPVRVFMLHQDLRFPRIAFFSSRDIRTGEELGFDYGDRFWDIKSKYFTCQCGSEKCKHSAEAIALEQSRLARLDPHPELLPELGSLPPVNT
Outline: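 Chemiluminescent proximity detection of H3K9 monomethylation, read after 10 min bead incubation in the dark. Reaction: 20 nM G9a, 500 nM biotin-H3K9 peptide, 20 uM SAM cofactor, 2 h, room temperature, following 15 min enzyme-compound preincubation.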
With `COc1ccc(C(=O)CSc2nnc(CN3CCCCC3)n2-c2ccc(F)cc2)cc1` the Potency was inconclusive: 1.26 µM [inhibitor, full curve].
With `COc1cc(/C=N\NC(=O)C2C(=O)NCC2c2ccccc2)cc(OC)c1O` (stereo not drawn) the activity, negative = inhibition was inconclusive: -74.8% [inhibitor].
With `NC(=O)c1ccccc1N/C=C/C(=O)c1ccccc1` the Potency was inconclusive: 6.31 µM [inhibitor, partial curve, poor fit].
With `COc1ccc(CC(=O)N(C)CC(=O)Nc2ccccc2C(F)(F)F)cc1S(=O)(=O)N1CCOCC1` the Potency was inconclusive: 89.1 µM [inhibitor, single point].
With `Cc1ccccc1CN1C(=O)c2ccccc2Sc2ccc(C(=O)NCCc3ccccc3)cc21` the Potency was “inactive”.
In the case of `CN1C2CCC1/C(=C\c1ccccc1Cl)C(=O)/C2=C\c1ccccc1Cl`, the activity, negative = inhibition was inconclusive: -95.3% [inhibitor].
With `Cn1c(=O)c(C#N)c(-c2ccc(F)cc2)c2cc(C(=O)c3cc(Cl)cc(Cl)c3O)cnc21` the Potency was inconclusive: 35.5 µM [inhibitor, single point].
With `O=C(COC(=O)c1sc2ccccc2c1Cl)NCC1CCCCC1` the Potency was inconclusive: 79.4 µM [inhibitor, single point].
With `CCOc1c(C=C(C#N)C#N)c2ccccc2n1CC` the Potency was active: 10 µM.
With `CCOc1ccc(S(=O)(=O)N2CCOCC2)cc1NC(=O)CSCc1c(C)noc1C` the activity, negative = inhibition was inactive: -1.99% [at 2.33 µM].
In the case of `CCn1cc(C(=O)N2CCN(c3cccc(Cl)c3)CC2)c(=O)c2cc(S(=O)(=O)N3CCC(C)CC3)ccc21`, the Potency was inconclusive: 17.8 µM [inhibitor, partial curve, poor fit].
With `O=C(CNC(=O)c1ccc([N+](=O)[O-])cc1)N/N=C\c1ccc(OC(=O)c2ccccc2)cc1` the Potency was inconclusive: 0.708 µM [inhibitor, full curve, poor fit].
In the case of `Cc1cc2c(c(=O)n1CCN(C)C)C(c1ccccc1Br)C(C#N)=C(N)O2` (stereo not drawn), the Potency was inconclusive: 89.1 µM [inhibitor, single point].
With `CC(=O)Nc1ccc(S(=O)(=O)Nc2ncccn2)cc1` the Potency was “inactive”.
In the case of `CCOC(=O)C1=C(C)Nc2nc(C)nn2C1c1ccc(OC)c(OC)c1` (stereo not drawn), the Potency was inconclusive: 89.1 µM [inhibitor, partial curve, poor fit].
In the case of `COC(=O)c1cc(NC(=O)C2CC=CCC2C(=O)O)cc(C(=O)OC)c1` (stereo not drawn), the Potency was inconclusive: 89.1 µM [inhibitor, single point].
For `O=C(CCS(=O)(=O)c1ccc(F)cc1)Nc1ccc(N2CCN(Cc3ccccc3)CC2)cc1`, the Potency was inconclusive: 3.55 µM [inhibitor, full curve, poor fit].
For `Nc1ccc(S(=O)(=O)NCC(=O)OC2CCOC2=O)cc1[N+](=O)[O-]` (stereo not drawn), the activity, negative = inhibition was inactive: -1.74% [at 12.7 µM].
With `CCCCn1c(SCC(N)=O)nc2ccc(N3CCOCC3)cc2c1=O` the Potency was inconclusive: 70.8 µM [inhibitor, single point].
With `CC(NS(=O)(=O)c1ccccc1)C(=O)Nc1ccc2c(c1)OCCO2` (stereo not drawn) the Potency was inconclusive: 79.4 µM [inhibitor, single point].
In the case of `CC(=O)c1ccc(OC(=O)CCc2nc3ccccc3s2)cc1`, the Potency was active: 31.6 µM.
For `CCOC(=O)C1CCN(c2c(N3CCCCCC3)c(=O)c2=O)CC1`, the Potency was inconclusive: 79.4 µM [inhibitor, single point].
With `COC(=O)C1=C(C)NC(=S)NC1c1ccc(-c2cc(Cl)ccc2Cl)o1` (stereo not drawn) the activity, negative = inhibition was inconclusive: -91.9% [inhibitor].
`Cc1ccc(C(CNS(=O)(=O)c2ccc([N+](=O)[O-])cc2)N2CCN(C)CC2)cc1` (stereo not drawn) was tested, and the Potency was inconclusive: 56.2 µM [inhibitor, partial curve, poor fit].
`COc1cc2c(cc1OC)CN(C(=O)c1cccs1)CC2` was tested, and the Potency was “inactive”.
`O=S(=O)(Nc1ccc(-c2cn3ccccc3n2)cc1)c1ccccc1` was tested, and the Potency was inconclusive: 56.2 µM [inhibitor, partial curve].
`CCOC(=O)NC(=O)CSc1nc2ccccc2[nH]1` was tested, and the Potency was active: 56.2 µM.
In the case of `COc1cccc2c1OC1(C)CC2N(C(=O)c2ccco2)C(=S)N1c1ccc(F)cc1` (stereo not drawn), the Potency was inconclusive: 39.8 µM [inhibitor, single point].
`O=C(COc1ccc(Cl)cc1)N1CCN(c2ccc([N+](=O)[O-])c(N3CCCCC3)c2)CC1` was tested, and the activity, negative = inhibition was inconclusive: -65.6% [inhibitor].
For `CCOc1ccc(-n2cc(-c3ccccc3)c3c(NC4CCCC4)ncnc32)cc1`, the Potency was “inactive”.
With `CCSC1=C(C#N)C(c2ccccc2C)CC(=O)N1` (stereo not drawn) the Potency was inconclusive: 7.08 µM [inhibitor, single point].
With `COc1ccc(CCNc2oc(Cc3cccc4ccccc34)nc2C#N)cc1OC` the Potency was inconclusive: 3.55 µM [inhibitor, partial curve, poor fit].
With `CC(Sc1nnc(-c2ccncc2)n1C)C(=O)NCC1CCCO1` (stereo not drawn) the Potency was “inactive”.
For `O=C(Nc1ccccc1)Nc1nnc(SCC(=O)N2CCCCC2)s1`, the Potency was inconclusive: 28.2 µM [inhibitor, partial curve, poor fit].
In the case of `COC(=O)c1cc(-c2ccc(OC)cc2)n[nH]1`, the Potency was inconclusive: 39.8 µM [inhibitor, single point].
For `O=C1CCN(C(=O)c2ccc(Cl)cc2)N1`, the Potency was active: 12.6 µM.
`CCCCc1ccc(NC(=O)CSc2nc(=O)[nH]c3c2CCCC3)cc1` was tested, and the Potency was “inactive”.
In the case of `O=C(C1CCCN(c2nnc(-n3cccc3)s2)C1)N1CCN(c2ccccc2)CC1` (stereo not drawn), the Potency was active: 50.1 µM.
`Cc1cc2oc(C(=O)N(Cc3ccc(N(C)C)cc3)Cc3ccco3)c(C)c2cc1Cl` was tested, and the Potency was active: 12.6 µM.
For `COc1ccc(S(=O)(=O)Nc2cc3c4c(oc3c3ccccc23)CCCC4=O)cc1`, the Potency was inconclusive: 25.1 µM [inhibitor, single point].
`COc1cc2cc(C(N)=O)c(N)nc2cc1OC` was tested, and the Potency was inconclusive: 3.16 µM [inhibitor, single point].
With `CCC(c1nnnn1Cc1ccco1)N(CCN1CCOCC1)Cc1cc2cc(C)ccc2[nH]c1=O` (stereo not drawn) the Potency was inconclusive: 89.1 µM [inhibitor, single point].
In the case of `COc1cc(/C=C2/C(=N)N3C(SC)=NSC3=NC2=O)ccc1OC(=O)c1ccco1`, the Potency was inconclusive: 56.2 µM [inhibitor, single point].

From PubChem BioAssay AID504332 (National Center for Advancing Translational Sciences (NCATS), 2011)
% is scaled to controls: 0 for no effect and ±100 for the full control effect; potency is read from the fitted curve at half-maximal effect; tags tell the direction and shape of the fitted curve.
Also: nearly all actives have a fitted effect of over 75% in size.
